# In PMC4336329 (PLoS ONE, 2015):
# Screen size: about 310,000 compounds; about 14,000 (4.5%) showed an effect of 50% or more. Effects have a minus sign here. The list shows a part of the results.
# Target: human ether-à-go-go-related gene (hERG) potassium channel (human, UniProt Q12809)
# Assay: primary screen, population patch clamp on CHO cells stably expressing hERG
# 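Also: peak tail current of the secondary pulse compared with the same well before compound.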
# Sequence of human ether-à-go-go-related gene (hERG) potassium channel (Q12809 whole entry, looked up): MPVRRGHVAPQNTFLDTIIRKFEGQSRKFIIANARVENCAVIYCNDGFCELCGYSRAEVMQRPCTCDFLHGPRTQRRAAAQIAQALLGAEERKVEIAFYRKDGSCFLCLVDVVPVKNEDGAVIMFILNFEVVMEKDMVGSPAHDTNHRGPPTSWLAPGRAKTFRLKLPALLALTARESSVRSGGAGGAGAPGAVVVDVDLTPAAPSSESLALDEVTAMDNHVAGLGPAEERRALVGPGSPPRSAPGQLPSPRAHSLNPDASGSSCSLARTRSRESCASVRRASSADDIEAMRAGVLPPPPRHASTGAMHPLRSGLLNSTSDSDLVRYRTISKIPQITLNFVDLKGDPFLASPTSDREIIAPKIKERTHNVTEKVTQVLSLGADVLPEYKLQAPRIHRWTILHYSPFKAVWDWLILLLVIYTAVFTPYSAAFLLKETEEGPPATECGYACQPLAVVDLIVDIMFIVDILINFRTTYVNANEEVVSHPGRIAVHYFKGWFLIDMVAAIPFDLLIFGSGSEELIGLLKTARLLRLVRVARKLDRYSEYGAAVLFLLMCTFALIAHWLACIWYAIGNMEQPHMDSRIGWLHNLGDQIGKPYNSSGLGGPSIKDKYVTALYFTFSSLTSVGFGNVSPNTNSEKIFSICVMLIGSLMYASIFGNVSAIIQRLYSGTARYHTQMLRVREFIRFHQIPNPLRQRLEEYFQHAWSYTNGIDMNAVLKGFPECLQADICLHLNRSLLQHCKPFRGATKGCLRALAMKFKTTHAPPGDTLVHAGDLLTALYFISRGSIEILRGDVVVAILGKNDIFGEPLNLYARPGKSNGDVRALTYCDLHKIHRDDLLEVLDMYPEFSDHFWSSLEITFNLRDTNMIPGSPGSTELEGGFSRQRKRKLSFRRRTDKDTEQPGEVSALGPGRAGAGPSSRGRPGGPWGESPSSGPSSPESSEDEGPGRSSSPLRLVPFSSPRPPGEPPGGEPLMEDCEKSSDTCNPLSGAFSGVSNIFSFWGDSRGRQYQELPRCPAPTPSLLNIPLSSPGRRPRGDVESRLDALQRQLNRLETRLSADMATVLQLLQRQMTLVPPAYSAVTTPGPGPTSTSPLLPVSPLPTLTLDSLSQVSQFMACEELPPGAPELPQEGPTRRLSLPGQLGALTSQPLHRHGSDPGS
row,SMILES,"hERG current change (%, negative = inhibition) at 10uM [%]"
1,Cc1c(NC(=O)COc2ncnc3c(Cl)cc(Cl)cc23)c(=O)n(-c2ccccc2)n1C,7.23
2,Cc1ccc(C(=O)N/N=C/c2ccc(-c3cccc(C(F)(F)F)c3)o2)cn1,1.62
3,CC(OC(=O)CNC(=O)c1cccc(F)c1)C(=O)NC1CCCCC1C (centres unmarked),8.98
4,CN(C)c1ccc(CNC(=O)CCS(=O)(=O)c2ccc3c(c2)n(C)c(=O)c(=O)n3C)cc1,1.99
5,COc1ccccc1N1CCN(S(=O)(=O)CCNC(=O)c2cccc(F)c2)CC1,-24.7
6,Cn1cccc1/C=C(/C#N)C(N)=S,3.79
7,Cn1ccnc1SCC(=O)Nc1ccc2c(c1)OC(F)(F)O2,6.66
8,CCc1ccccc1N/C(=N\S(=O)(=O)c1ccccc1)C(F)(F)F,4.15
9,C=CCn1c(CC(=O)Nc2cccc(OC)c2)nnc1SCC(=O)NC1CCCCC1,-3.45
10,Clc1ccccc1CN1CCN(c2cccc3[nH]ccc23)CC1,3.09
11,CC(C)CC(C(=O)NC1CCCC1)N(Cc1ccc2c(c1)OCO2)C(=O)c1snc(C(N)=O)c1N (centres unmarked),-20.4
12,Cc1cc(NC(=O)CCCC(=O)NCc2ccccc2)no1,7.97
13,Cl.Oc1ccc2c3c1O[C@H]1c4[nH]c5ccccc5c4C[C@@]4(O)[C@@H](C2)N(CC2CC2)CC[C@]314,-63
14,Cl.Nc1nc(N2CCN(C/C=C/c3ccccc3)CC2)nc2ccccc12,-67.7
15,CC1(C)Cc2nc(-c3ccccc3)n3cnnc3c2CO1,2.47
16,Cc1ccc(-c2nc3ccccc3c(=O)n2-c2cccc(O)c2)cc1,13.9
17,Cc1cnc(NC(=O)CCNC(=O)c2ccccc2Cl)s1,5.74
18,COc1cc(OC)cc(C(=O)OCC(=O)N2CCCC2)c1,12.2
19,CC(=O)c1ccc(N2CCN(C(=S)Nc3ccccc3C(F)(F)F)CC2)cc1,18.9
20,Nc1nnnn1CC(=O)N/N=C/c1cccs1,19.6
21,COC(=O)c1ccc(-c2nc3ccccc3[nH]2)cc1,17.8
22,CCN1CCN(C(=O)CN(Cc2ccccc2)S(C)(=O)=O)CC1,0.141

row,SMILES,"hERG current change (%, negative = inhibition) at 10uM [%]"
1,O=C(CN1CCOCC1)N(c1ccccc1)c1ccc2ccccc2c1,-16.2
2,CC1(c2ccccc2)NC(=O)N(CC#N)C1=O (centres unmarked),11.7
3,CC(NC(=O)Cn1c(=O)[nH]c2ccsc2c1=O)C12CC3CC(CC(C3)C1)C2 (centres unmarked),0.121
4,COc1cc(CCC(=O)O)on1,18.4
5,Cn1c(N)c(C(=O)COC(=O)C2(c3ccccc3F)CCCC2)c(=O)n(C)c1=O,-29.9
6,O=C(c1ccc(F)cc1)N(Cc1ccccc1)C1CCS(=O)(=O)C1 (centres unmarked),-1.55
7,Cc1cc(CN2CCC(n3nccc3NC(=O)c3ccccc3C)CC2)n[nH]1,-38
8,CC(C)NC(=O)C(=O)NC1CCCCCC1,-3.3
9,COc1cccc(NC(=S)NC2CC3CCCC(C2)N3CC(C)C)c1 (centres unmarked),-24.8
10,Cc1cccc2sc(NC(=O)CN3C(=O)c4ccccc4C3=O)nc12,11.3
11,CCCCCOC(=O)C1=C(C)NC(=O)NC1c1ccc2c(c1)OCO2 (centres unmarked),6.41
12,O=C(NCCNc1ccccc1[N+](=O)[O-])c1ccccc1F,4.11
13,Cc1cc2nn(-c3ccc(Cl)cc3)nc2cc1N,5.43
14,O=S(=O)(Cc1ccc(Cl)cc1)N1CCCCCC1,6.95
15,COc1ccc(NC(=O)COC(=O)COc2ccc(Br)cc2)cc1,41.8
16,CC(C)Oc1ccc(C(CC(=O)O)NC(=O)Cc2ccc(Cl)cc2)cc1 (centres unmarked),24.8
17,N#Cc1c(SCC(N)=O)nsc1SCc1ccccc1Cl,9.65
18,CCCCn1c(=O)c(F)cn(Cc2ccc(OC)c([N+](=O)[O-])c2)c1=O,-25.2
19,COC(=O)c1ccc(N2CCN(C)CC2)c(NC(=O)COc2ccccc2Cl)c1,12.7
20,CC(=O)NC(C(=O)c1ccccc1)N1CCCCC1 (centres unmarked),6.15
21,CC(=O)c1csc(-c2cccc(-c3nc4ccc(Cl)cn4c3NC3CCCCC3)c2)c1.O=C(O)C(F)(F)F,22.9
22,c1csc(C2C3=C(Nc4ncnn42)c2ccccc2OC3)c1 (centres unmarked),11.4
